From the supplement of paper PMC3334620
In all, about 33,000 sequences were measured (“E-score (-0.5 to 0.5)”: median about -0.016, highest 2% from about 0.32 on). The list shows a part of the results.

The sequences below were run against T1, Stp1 (UniProt B3LFK1) (assay: PBM E-score (8-mer binding enrichment) (E-score (-0.5 to 0.5)); higher = stronger / more preferred TF binding; most listed sequences are background and not binding sites). Conditions: protein concentration: 200 nM; construct: GST-full length.
T1 sequence: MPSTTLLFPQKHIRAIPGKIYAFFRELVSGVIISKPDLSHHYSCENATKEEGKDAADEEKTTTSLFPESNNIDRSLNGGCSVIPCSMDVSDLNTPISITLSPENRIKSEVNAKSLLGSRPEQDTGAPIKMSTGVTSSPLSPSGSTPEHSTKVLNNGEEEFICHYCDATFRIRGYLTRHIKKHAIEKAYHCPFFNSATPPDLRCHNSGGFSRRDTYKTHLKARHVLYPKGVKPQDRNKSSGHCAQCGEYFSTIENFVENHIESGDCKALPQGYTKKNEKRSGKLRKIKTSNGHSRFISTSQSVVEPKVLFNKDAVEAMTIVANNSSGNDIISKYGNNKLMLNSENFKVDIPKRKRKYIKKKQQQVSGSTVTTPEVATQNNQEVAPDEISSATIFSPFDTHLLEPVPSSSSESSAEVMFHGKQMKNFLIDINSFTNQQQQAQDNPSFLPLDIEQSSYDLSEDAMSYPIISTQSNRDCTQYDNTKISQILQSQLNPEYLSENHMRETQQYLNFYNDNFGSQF
Outline: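 Using PURExpress in vitro transcription/translation, GST-tagged yeast transcription factors were made in full-length or DNA-binding-domain form. These were applied at about 100-200 nM to double-stranded universal all-10-mer Agilent arrays, and bound protein was detected with fluorescent anti-GST. Scans were normalised with masliner before the Universal PBM Analysis Suite assigned E-scores to ungapped eight-base words pooled with their reverse complements.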
With GCTTCCAA the “PBM E-score” value was 0.0396.
AGTCAATA was tested, and the “PBM E-score” value was -0.0119.
GCTTTGCC was tested, and the “PBM E-score” value was 0.0893.
AGCGGCGA was tested, and the “PBM E-score” value was 0.386.
For CCGGTATA, the “PBM E-score” value was -0.168.
With ACGGATCA the “PBM E-score” value was 0.118.
For AAATTCTA, the “PBM E-score” value was -0.0101.
In the case of CTAACAAC, the “PBM E-score” value is reported as 0.144.
AACTTACC was tested, and the “PBM E-score” value was -0.0292.
For GACTAAAA, the “PBM E-score” value was -0.0127.
With ACGTATAG the “PBM E-score” value was -0.0186.
GGGTCAAA was tested, and the “PBM E-score” value was -0.159.
With AGTCCCTA the “PBM E-score” value was -0.271.
With ATAGGATA the “PBM E-score” value was -0.026.
ATGCGCAG was tested, and the “PBM E-score” value was -0.224.
With GTTTCCAA the “PBM E-score” value was -0.115.
ATGTAATG was tested, and the “PBM E-score” value was 0.153.
AACAGGCC was tested, and the “PBM E-score” value was -0.187.
CCAAACCC was tested, and the “PBM E-score” value was -0.244.
With CAAGCCTC the “PBM E-score” value was -0.34.
In the case of TTCAGAAA, the “PBM E-score” value is reported as 0.0116.
In the case of GGAGCAAA, the “PBM E-score” value is reported as -0.209.
In the case of CGGGGCGC, the “PBM E-score” value is reported as 0.163.
For ACGGCGGG, the “PBM E-score” value was 0.289.
In the case of CGACCGCC, the “PBM E-score” value is reported as -0.0226.
For TAAAATCA, the “PBM E-score” value was 0.131.
With CACGGAGA the “PBM E-score” value was 0.2.
In the case of AACATGTT, the “PBM E-score” value is reported as -0.00786.
With CTCCAGGA the “PBM E-score” value was -0.251.
For GCCGATAA, the “PBM E-score” value was 0.137.
For CGGGCACA, the “PBM E-score” value was -0.106.
In the case of AGTACTTG, the “PBM E-score” value is reported as 0.142.
In the case of CGATCAGA, the “PBM E-score” value is reported as -0.053.
In the case of CGAATATA, the “PBM E-score” value is reported as 0.0736.
ACCTCAAT was tested, and the “PBM E-score” value was -0.128.
In the case of AAGTTTCG, the “PBM E-score” value is reported as 0.0786.
With AAGTGATA the “PBM E-score” value was -0.137.
With TAATTGGA the “PBM E-score” value was 0.0604.
AGAAACCG was tested, and the “PBM E-score” value was -0.0245.
GTCTGATA was tested, and the “PBM E-score” value was -0.0359.
For GCAGGGGC, the “PBM E-score” value was -0.145.
With CGGATAAA the “PBM E-score” value was 0.223.
CCCGACTA was tested, and the “PBM E-score” value was -0.226.
With CAGCGCAC the “PBM E-score” value was -0.0825.
In the case of ATTGCCGG, the “PBM E-score” value is reported as -0.104.
In the case of AGGCTCGG, the “PBM E-score” value is reported as -0.136.
For TATTGGAA, the “PBM E-score” value was -0.0198.
For ACTTTACA, the “PBM E-score” value was -0.00342.
CGCTCTAC was tested, and the “PBM E-score” value was -0.0216.
With CTAAGGGC the “PBM E-score” value was -0.224.
For CGGCGGAG, the “PBM E-score” value was 0.214.
In the case of GCAATTTA, the “PBM E-score” value is reported as 0.185.
AGAGTGCC was tested, and the “PBM E-score” value was -0.0276.
With ATAATCAA the “PBM E-score” value was 0.193.
With ATTTGACA the “PBM E-score” value was 0.163.
CCATCCGA was tested, and the “PBM E-score” value was -0.146.
AAACGCAT was tested, and the “PBM E-score” value was -0.227.
TATGATAA was tested, and the “PBM E-score” value was 0.183.
For TCGGGAAA, the “PBM E-score” value was 0.0247.
In the case of GTCTAATA, the “PBM E-score” value is reported as -0.0272.
ATGCGGCA was tested, and the “PBM E-score” value was 0.467.
For CTCGACGA, the “PBM E-score” value was -0.13.
With CCTGCTCG the “PBM E-score” value was -0.19.
In the case of GCCAATCC, the “PBM E-score” value is reported as 0.0101.
For CTCAGGGA, the “PBM E-score” value was -0.305.
For GATCGCTA, the “PBM E-score” value was -0.256.
With GCACTGGA the “PBM E-score” value was -0.119.
AAAGTAGA was tested, and the “PBM E-score” value was -0.0863.
AGACTCCC was tested, and the “PBM E-score” value was -0.302.
With TGCCTCAA the “PBM E-score” value was -0.019.
In the case of AAGGCTCG, the “PBM E-score” value is reported as -0.0294.
In the case of CCCTTCGG, the “PBM E-score” value is reported as -0.0178.
ACCGCGGC was tested, and the “PBM E-score” value was 0.384.
In the case of CAACCTGC, the “PBM E-score” value is reported as -0.109.
For ACTACCGC, the “PBM E-score” value was 0.101.
In the case of CGCCGGCC, the “PBM E-score” value is reported as 0.0744.
In the case of ACGCTTCG, the “PBM E-score” value is reported as -0.0864.
For ATCTAGGC, the “PBM E-score” value was -0.0831.
In the case of TCACGAAA, the “PBM E-score” value is reported as 0.26.
AGACTCCT was tested, and the “PBM E-score” value was -0.19.
CACTCCAC was tested, and the “PBM E-score” value was -0.0378.
For GCAGTAGA, the “PBM E-score” value was -0.0574.
In the case of AAGCAAAG, the “PBM E-score” value is reported as -0.0154.
AGATGCCC was tested, and the “PBM E-score” value was 0.06.
With CTGTGTCA the “PBM E-score” value was 0.0251.
CGTCTTTC was tested, and the “PBM E-score” value was 0.0661.
For CGCTTATA, the “PBM E-score” value was 0.171.
With ACTTTCTG the “PBM E-score” value was 0.0182.
With CGACGAAC the “PBM E-score” value was 0.00416.
For AGGTGGTA, the “PBM E-score” value was -0.0803.
For ACGACCCT, the “PBM E-score” value was -0.281.
CACCTCTG was tested, and the “PBM E-score” value was -0.245.
For CTCTCCAC, the “PBM E-score” value was -0.267.
In the case of AATCCAAC, the “PBM E-score” value is reported as -0.107.
In the case of ACGTTTCT, the “PBM E-score” value is reported as -0.15.
GCGAATGA was tested, and the “PBM E-score” value was 0.281.
In the case of CCTATTAC, the “PBM E-score” value is reported as -0.0831.
For CGCGATCA, the “PBM E-score” value was 0.0494.
In the case of ATTGCCTC, the “PBM E-score” value is reported as 0.218.
With CGATTGTA the “PBM E-score” value was 0.108.
CAAGGGTA was tested, and the “PBM E-score” value was -0.257.
With TGCACCAA the “PBM E-score” value was -0.0793.
AACGTTGA was tested, and the “PBM E-score” value was -0.00192.
With TATGTTCA the “PBM E-score” value was 0.0669.
In the case of AGGCTGCC, the “PBM E-score” value is reported as -0.0437.
In the case of CATACACC, the “PBM E-score” value is reported as -0.0591.
For AACACACG, the “PBM E-score” value was 0.118.
GCAAGGCA was tested, and the “PBM E-score” value was 0.38.
AGAGTTGC was tested, and the “PBM E-score” value was 0.0899.
